Measurements as given in the BET-seq Pho4 binding data (Le et al. 2018).
The other results are listed elsewhere or left out. These are noisy estimates, calculated here from bound and input reads.

Target: T1, Pho4 (S. cerevisiae) (UniProt P07270)
T1 sequence: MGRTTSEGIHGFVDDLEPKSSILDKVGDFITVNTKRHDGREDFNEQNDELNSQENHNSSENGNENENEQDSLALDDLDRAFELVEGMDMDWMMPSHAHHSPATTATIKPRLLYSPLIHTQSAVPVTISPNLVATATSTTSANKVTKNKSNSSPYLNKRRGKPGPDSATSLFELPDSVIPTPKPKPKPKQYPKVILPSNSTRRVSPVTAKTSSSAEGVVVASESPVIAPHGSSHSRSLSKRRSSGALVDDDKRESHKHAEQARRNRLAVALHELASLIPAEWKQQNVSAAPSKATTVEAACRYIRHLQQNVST
Assay: relative binding free energy (BET-seq); higher = weaker binding
Settings: reference: library average

| Sequence | relative binding free energy |
| --- | --- |
| TGAATCACGTGTTGTT | 0.17 kcal/mol |
| TAATGCACGTGACAGG | 0.07 kcal/mol |
| ATCGGCACGTGGGGGC | -0.13 kcal/mol |
| GTGGTCACGTGGGTTG | 0.11 kcal/mol |
| TTAATCACGTGCGGGA | 0.02 kcal/mol |
| GGAGCCACGTGGTAGT | -0.02 kcal/mol |
| TTGGTCACGTGATATC | 0.14 kcal/mol |
| GGGGACACGTGTATGG | 0.06 kcal/mol |
| AGTGTCACGTGCGGAT | 0.02 kcal/mol |
| CGGTTCACGTGTCTGG | 0.28 kcal/mol |
| GGGATCACGTGGGACA | 0.04 kcal/mol |
| GGAGTCACGTGTAGGC | -0.05 kcal/mol |
| GAGTCCACGTGTTAGG | 0.28 kcal/mol |
| GCATGCACGTGTGTAG | 0.06 kcal/mol |
| TTGGCCACGTGTAAAG | 0.17 kcal/mol |
| GTCTGCACGTGGTTGA | 0.1 kcal/mol |
| TTGTGCACGTGTTATT | -0.03 kcal/mol |
| CATTTCACGTGCGGGA | 0.3 kcal/mol |
| GGGTACACGTGCATGT | 0.18 kcal/mol |
| CGTATCACGTGAAGTA | 0.49 kcal/mol |
| ATATGCACGTGTCTAT | -0.01 kcal/mol |
| CTGTACACGTGGTTTT | 0.18 kcal/mol |
| TTTAACACGTGAAGTT | 0.28 kcal/mol |
| AAGCGCACGTGCGTTT | -0.04 kcal/mol |
| TATATCACGTGTTGTA | 0.03 kcal/mol |

| Sequence | relative binding free energy |
| --- | --- |
| TTTTGCACGTGGGATA | -0.06 kcal/mol |
| GTTCTCACGTGGGTTG | 0.16 kcal/mol |
| AACAGCACGTGGGAGG | -0.14 kcal/mol |
| GTGGTCACGTGTAGGC | 0.17 kcal/mol |
| GAGTACACGTGTTGAG | 0.07 kcal/mol |
| TGCGCCACGTGGGAGT | -0.25 kcal/mol |
| TTTCCCACGTGTTGTT | 0.05 kcal/mol |
| GATGTCACGTGGGCAT | -0.03 kcal/mol |
| TATTTCACGTGTGGTG | 0.34 kcal/mol |
| AGGGACACGTGGTTCG | -0.02 kcal/mol |
| GGGGGCACGTGGGAGT | -0.11 kcal/mol |
| AGAGCCACGTGGTGTT | -0.16 kcal/mol |
| TTTTTCACGTGTTTCA | 0.39 kcal/mol |
| TCGGTCACGTGGAGGC | 0.21 kcal/mol |
| ATCAGCACGTGTGGTA | -0.04 kcal/mol |
| TTGGGCACGTGTAACT | 0.17 kcal/mol |
| ACGTTCACGTGAGGGT | 0.34 kcal/mol |
| TCTTTCACGTGGGCGT | 0.17 kcal/mol |
| CGGAGCACGTGTTGTG | -0.01 kcal/mol |
| ATTTCCACGTGAGGGA | 0.31 kcal/mol |
| TATGTCACGTGAGTTG | 0.31 kcal/mol |
| GGGTGCACGTGCATTG | 0.08 kcal/mol |
| TCGATCACGTGGGGAG | 0.08 kcal/mol |
| TAAGGCACGTGGGGAC | -0.14 kcal/mol |
| TGTTGCACGTGGTATG | -0.03 kcal/mol |

| Sequence | relative binding free energy |
| --- | --- |
| GAAGGCACGTGTTTTG | 0 kcal/mol |
| TGTTACACGTGGGGAA | 0.06 kcal/mol |
| GGTGCCACGTGGGTTC | -0.18 kcal/mol |
| TATCCCACGTGGTGTT | -0.11 kcal/mol |
| CTCTGCACGTGTTTTT | 0.02 kcal/mol |
| ATAGTCACGTGTGAGT | 0.21 kcal/mol |
| AGGTACACGTGGGTGC | -0.13 kcal/mol |
| GTCTGCACGTGGCTGT | 0.02 kcal/mol |
| GATTACACGTGGGGAT | 0.01 kcal/mol |
| TGGAGCACGTGTCATG | -0.13 kcal/mol |
| GGGGACACGTGTGATG | 0.06 kcal/mol |
| GTTGTCACGTGTGTCC | 0.22 kcal/mol |
| ATAGTCACGTGTGGTG | 0.09 kcal/mol |
| GTTTGCACGTGTATAT | 0 kcal/mol |
| TTGGTCACGTGAGCTA | 0.26 kcal/mol |
| GTAAACACGTGTAGTG | -0.02 kcal/mol |
| TGATGCACGTGGTAGC | -0.01 kcal/mol |
| CGTGACACGTGTGGAT | -0.12 kcal/mol |
| TAATACACGTGTGGGC | 0.15 kcal/mol |
| TTTGTCACGTGACAGT | 0.24 kcal/mol |
| ATTCTCACGTGTAGGG | 0.16 kcal/mol |
| TTATTCACGTGTTGGT | 0.33 kcal/mol |
| GAAGTCACGTGTCGGT | 0.22 kcal/mol |
| GCGTACACGTGGTATG | 0.1 kcal/mol |
| CGCGTCACGTGTGAGG | 0.07 kcal/mol |

| Sequence | relative binding free energy |
| --- | --- |
| TCTGGCACGTGGGTTG | -0.11 kcal/mol |
| TGGTTCACGTGATGCT | 0.31 kcal/mol |
| GTTCTCACGTGTGTTG | 0.13 kcal/mol |
| TACTACACGTGTGGTG | -0.08 kcal/mol |
| CTTGACACGTGTTTAG | -0.05 kcal/mol |
| TTTTCCACGTGCGTGA | 0.05 kcal/mol |
| ATCGTCACGTGAGGCG | 0.33 kcal/mol |
| AGCGTCACGTGACGGG | 0.34 kcal/mol |
| GATGTCACGTGCGTGA | 0.1 kcal/mol |
| TAAAACACGTGAATGG | 0.4 kcal/mol |
| TGACACACGTGGGTGT | -0.23 kcal/mol |
| GGTATCACGTGTGTTG | 0.15 kcal/mol |
| TATCGCACGTGAGGTT | 0.18 kcal/mol |
| ATTGTCACGTGCTGGG | 0.13 kcal/mol |
| GTATACACGTGGGGCG | -0.13 kcal/mol |
| GGCGGCACGTGTGCAG | 0.01 kcal/mol |
| GTGTGCACGTGGTGCG | -0.13 kcal/mol |
| CTTGTCACGTGTTGGT | 0.18 kcal/mol |
| CTTGCCACGTGTGGTT | -0.12 kcal/mol |
| ACGGTCACGTGGTTGA | 0.05 kcal/mol |
| TAAGTCACGTGGGCTT | -0.1 kcal/mol |
| ATCTACACGTGGTTAT | 0.1 kcal/mol |
| GTTAACACGTGCGGTA | -0.01 kcal/mol |
| CGTCACACGTGTAGGT | 0.13 kcal/mol |
| ATCGGCACGTGTGTGA | 0.05 kcal/mol |

| Sequence | relative binding free energy |
| --- | --- |
| TGGGACACGTGAAATT | 0.39 kcal/mol |
| TATTGCACGTGGAGCT | 0 kcal/mol |
| GCTTGCACGTGGTGTG | -0.01 kcal/mol |
| GGTGTCACGTGGTAAT | 0.12 kcal/mol |
| TCGGGCACGTGGGGAT | -0.16 kcal/mol |
| GGCAACACGTGGTGTT | -0.04 kcal/mol |
| TTGTACACGTGTAGCT | -0.04 kcal/mol |
| CGATTCACGTGGAGGG | 0.17 kcal/mol |
| GGTTGCACGTGAGGGG | 0.3 kcal/mol |
| TTATGCACGTGGAGCT | 0.11 kcal/mol |
| GGTGGCACGTGGTAAG | -0.01 kcal/mol |
| CCTGTCACGTGTATGG | 0.12 kcal/mol |
| GTATTCACGTGGGATG | 0.17 kcal/mol |
| AGTTGCACGTGCTTAT | -0.13 kcal/mol |
| TATGTCACGTGTCTTG | 0.17 kcal/mol |
| GGAGGCACGTGGTACG | -0.09 kcal/mol |
| AAGTTCACGTGTGTAT | 0.27 kcal/mol |
| TGTACCACGTGAAGGT | 0.12 kcal/mol |
| TTTGACACGTGTAGTT | 0.15 kcal/mol |
| CTTCACACGTGTGTGG | -0.04 kcal/mol |
| GTATTCACGTGGAGAG | 0.15 kcal/mol |
| CGAGGCACGTGGTGTT | -0.09 kcal/mol |
| TAACACACGTGGTGTT | -0.08 kcal/mol |
| GGGACCACGTGAGGGA | 0.14 kcal/mol |
| GAAAGCACGTGGGTAG | -0.19 kcal/mol |

| Sequence | relative binding free energy |
| --- | --- |
| TTTTACACGTGGATTC | 0.14 kcal/mol |
| GGAGTCACGTGAGGAA | 0.34 kcal/mol |
| AGTCTCACGTGAGTGT | 0.43 kcal/mol |
| TTTGGCACGTGGACGC | -0.1 kcal/mol |
| TAGTACACGTGGTTGT | 0.05 kcal/mol |
| CTTATCACGTGGGGAT | -0.02 kcal/mol |
| ATATACACGTGGGGCA | -0.1 kcal/mol |
| TTTGGCACGTGTGTAA | -0.08 kcal/mol |
| TGCGTCACGTGGGACG | 0.01 kcal/mol |
| ATGGTCACGTGGTGCG | -0.12 kcal/mol |
| TTTGGCACGTGGTCGA | -0.2 kcal/mol |
| TTTTCCACGTGCTTTT | 0.14 kcal/mol |
| ATGTTCACGTGAAGTT | 0.25 kcal/mol |
| TGTAACACGTGGTCGA | -0.02 kcal/mol |
| GGGTTCACGTGTGTGA | 0.3 kcal/mol |
| TAAAGCACGTGGTGAG | -0.05 kcal/mol |
| GGTAACACGTGTGATT | -0.05 kcal/mol |
| ATGGGCACGTGCATTT | -0.26 kcal/mol |
| AGTGCCACGTGGATGA | -0.02 kcal/mol |
| GTGTGCACGTGCGTAT | -0.11 kcal/mol |
| CGACGCACGTGATGGG | 0.21 kcal/mol |
